Drawing on the antibiotic and cytotoxicity screens of Wong et al. (2023), this text covers cytotoxicity call for 11 compounds.

The other results are listed elsewhere or left out.

The test system of this test is HepG2. In words: cytotoxicity call (relative viability < 0.9). The settings on record: 10 µM.
With `C[C@@H]1CN([C@H](C)CO)S(=O)(=O)c2ccc(C#Cc3cccc(F)c3)cc2O[C@@H]1CN(C)S(=O)(=O)c1ccccc1F`, the cytotoxicity call is “inactive”. Next, `Cc1noc(C)c1NC(=O)Nc1ccc2c(c1)C(=O)N([C@H](C)CO)C[C@H](C)[C@@H](CN(C)CC1CC1)OCCCC[C@@H](C)O2`: “inactive”.

Consider `C=CC(=O)N[C@@H]1CN(c2nc(Nc3cn(C)nc3OC)c3ncn(C)c3n2)C[C@H]1F`, for which the cytotoxicity call is “inactive”. Next, `C[C@@H]1CC=CC[C@@H](c2cccc(Cl)c2)NC(=O)[C@H](Cc2ccccc2)N(C)C(=O)c2ccccc2O1`: “inactive”. The entry for `CC(C)N1C[C@H](C)[C@@H](CN(C)Cc2ccc(Oc3ccccc3)cc2)Oc2c(NC(=O)c3ccccc3)cccc2C1=O` is “active”; for `COCC(=O)Nc1ccc2c(c1)C(=O)N(C)C[C@@H](OC)[C@H](C)CN(Cc1ccccc1F)[C@H](C)CO2` it is “inactive”; for `COc1ccc(NC(=O)Nc2ccc3c(c2)C(=O)N([C@H](C)CO)C[C@H](C)[C@H](CN(C)Cc2ccc(Oc4ccccc4)cc2)O3)cc1` it is “inactive”. The entry for `C[C@H]1CN([C@@H](C)CO)C(=O)c2cc(NC(=O)Nc3cccc4ccccc34)ccc2O[C@H]1CN(C)Cc1ccc(C(F)(F)F)cc1` is “inactive”; for `C[C@H]1CN([C@@H](C)CO)S(=O)(=O)c2ccc(C3=CCCC3)cc2O[C@H]1CN(C)C(=O)c1cnccn1` it is “inactive”.

Regarding `Cc1ccc(/C=N/N(C)C2=NCCN2)o1`, the cytotoxicity call is “inactive”. Regarding `C[C@@H]1CN([C@@H](C)CO)C(=O)Cc2cc(NC(=O)CCC(F)(F)F)ccc2O[C@@H]1CN(C)Cc1ccc(C(=O)Nc2ccccc2N)cc1`, the cytotoxicity call is “inactive”.
